According to PubChem BioAssay AID1159614 (National Center for Advancing Translational Sciences (NCATS), 2016):
About 65 (0.1%) of roughly 45,000 compounds were called active. Calls come from the whole dose curve; as a rule, active = well fitted activation curve with a large enough effect; inconclusive = small, poorly fitted or top-dose-only effect; inactive = no such curve, though single readings can be large or run the other way. Some of the results follow.

target: Galactocerebrosidase (Homo sapiens) (UniProt P54803); experiment: A Novel Cell-Based Assay to Identify Small Molecules for B -Galactocerebrosidase; conditions: 145M-Twi-hGALC-G270D cells (Twitcher mouse brain line with human GALC G270D), HMU-beta-Gal fluorescence, 48 h; series mostly up to 57.5 µM; activation: at the top concentration; note: 0% is about no effect; nearly all actives have a fitted effect of over 65% in size
UniProt P54803, sequence (P54803 whole entry, looked up): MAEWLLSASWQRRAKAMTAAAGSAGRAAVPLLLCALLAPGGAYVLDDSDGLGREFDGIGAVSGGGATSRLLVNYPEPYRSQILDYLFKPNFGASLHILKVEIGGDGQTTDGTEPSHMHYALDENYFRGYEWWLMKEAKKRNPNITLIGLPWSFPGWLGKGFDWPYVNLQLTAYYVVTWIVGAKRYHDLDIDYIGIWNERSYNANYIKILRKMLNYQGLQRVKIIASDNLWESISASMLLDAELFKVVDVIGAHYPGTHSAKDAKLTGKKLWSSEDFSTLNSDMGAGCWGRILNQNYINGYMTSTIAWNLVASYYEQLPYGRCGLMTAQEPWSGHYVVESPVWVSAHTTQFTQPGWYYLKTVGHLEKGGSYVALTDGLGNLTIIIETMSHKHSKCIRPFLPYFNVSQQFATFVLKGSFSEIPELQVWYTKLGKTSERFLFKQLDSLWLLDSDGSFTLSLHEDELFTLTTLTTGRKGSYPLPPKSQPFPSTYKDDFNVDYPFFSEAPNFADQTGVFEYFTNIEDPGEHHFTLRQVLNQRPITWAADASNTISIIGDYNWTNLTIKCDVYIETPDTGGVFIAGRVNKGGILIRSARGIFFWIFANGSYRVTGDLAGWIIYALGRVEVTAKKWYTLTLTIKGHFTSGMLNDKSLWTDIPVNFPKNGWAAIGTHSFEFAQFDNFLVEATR
Method in brief: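 Fluorescence readout: HMU-β-gal cleavage by mutant GALC (0.1 mM final, citrate/phosphate pH 5.2 with 1 mg/mL taurocholate), stopped with carbonate/bicarbonate plus Triton X-100. Cells: murine Twitcher 145M-Twi expressing human G270D GALC; qHTS for activators.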

Row | Structure (SMILES) | activation
1 | CC(C)Oc1ccc(CNC(=O)c2ccc3nc(Cc4ccccc4)oc3c2)cc1 | inactive: -15.1%
2 | CCC(CC)C(=O)Nc1ccc2nc(SCC(=O)N3c4ccccc4CC3C)sc2c1 (stereo unspecified) | inactive: -15.7%
3 | COc1cccc(N(CC(=O)N2CCC(C)CC2)S(=O)(=O)c2ccc(C)cc2)c1 | inactive: 19.2%
4 | COCCNC(=O)c1cc2c(Cl)nc3ccc(C)cc3c2s1 | inactive: -6%
5 | Cc1ccc(CN(Cc2ccco2)C(=O)c2oc3c(C)c(C)ccc3c2C)cc1 | inactive: -12.8%
6 | COc1ccc(Cl)cc1NC(=O)c1c(NCc2ccc(C)o2)sc2c1CCCC2 | inactive: -10.6%
7 | CCC(C)NC(=O)CSc1nc2cc3c(cc2c(=O)n1CCCC(=O)NCc1ccc2c(c1)OCO2)OCO3 (stereo unspecified) | inactive: -11.8%
8 | CN(C)c1ccc(C(=C2C=CC(=[N+](C)C)C=C2)c2ccccc2)cc1 | inactive: -9.49%
9 | COc1cc(OC)c(Nc2ncnc3onc(-c4cccc(Cl)c4)c23)cc1Cl | inactive: -0.0376%
10 | CC(C)c1ccc(Nc2ncnc3c2c(-c2ccccc2)cn3-c2ccccc2)cc1 | inactive: -13.9%
11 | COc1ccccc1CNC(=O)Cn1nc(C)c2nn(-c3ccc(Cl)cc3)c(C)c2c1=O | inactive: -21%
12 | Cc1cc(C)cc(NC(=O)C2(c3cccs3)CCOCC2)c1 | inactive: -9.5%
13 | CCc1ccc(NC(=O)CSc2nnc(-c3cc4occc4n3C)n2-c2ccccc2C)cc1 | inactive: -14.8%
14 | Clc1ccccc1Cc1cn2cc(-c3ccccc3)nc2s1 | inactive: 8.71%
15 | O=C1O[C@H]([C@@H](O)CO)C(O)=C1O | inactive: -14.6%
16 | CCCCOc1ccc(C2=NC(c3ccccc3)=Nc3ccc(OC)cc3N2)cc1 | inactive: -12%
17 | Cn1c(=O)c2c(-c3ccccc3Br)n(CCc3ccccc3)cc2n(C)c1=O | inactive: -23.1%
18 | C=CCc1c(C)nc2nc(SCC(=O)Nc3ccc(OCC)cc3)nn2c1C | inactive: -8.3%
19 | COc1cccc(CNC(=O)Cn2ccc3cc(S(=O)(=O)N4CCC(C)CC4)ccc32)c1 | inactive: -10.5%
20 | COc1ccccc1NC(=O)CSc1nnc2c3ccccc3n(C)c2n1 | inactive: -15.5%
21 | CC(C)COc1ccccc1C1CC(=O)Nc2cc3c(cc21)OCO3 (stereo unspecified) | inactive: -43%
22 | Clc1cccc(-n2ncc3c(N4CCN(Cc5ccccc5)CC4)ncnc32)c1 | inactive: -4.56%
23 | COc1ccccc1Nc1ncnc2c1nc1n2CCCC1 | inactive: -13.4%
24 | Cc1ccc(-n2nc(C)c3c(C(=O)Nc4ccc(Br)c(C)c4)cc(C)nc32)cc1 | inactive: -10.2%

Row | Structure (SMILES) | activation
25 | COc1ccc(NC(=O)Cn2ccn(-c3ccccc3)c(=O)c2=O)cc1 | inactive: -8.02%
26 | Cc1ccc(-c2nc3cccnc3s2)cc1NC(=O)Cc1ccccc1 | inactive: -7.61%
27 | COc1ccc(CCC(=O)NCc2ccc3c(c2)CCN3C(=O)c2ccc(C)cc2)cc1 | inactive: -11.6%
28 | COc1cccc(-c2nc(SCC(=O)N3CCc4ccccc43)c3c(=O)n(C)c(=O)n(C)c3n2)c1 | inactive: -7.03%
29 | CCOCCCn1c(=N)c(C(=O)NCC2CCCO2)cc2c(=O)n3cc(C)ccc3nc21 (stereo unspecified) | inactive: -12.1%
30 | COC(=O)C1=C(C)NC(=O)C1(NC(=O)c1ccccc1C)C(F)(F)F (stereo unspecified) | inactive: 2.68%
31 | COCCNC(=O)CSc1nc(-c2ccc(C)cc2)nc2c1c(=O)n(C)c(=O)n2C | inactive: -15.6%
32 | COc1ccccc1NC(=O)c1c(NC(=O)c2ccccc2Cl)sc2c1CCC2 | inactive: -11.2%
33 | Cc1cccc(OCC(=O)Nc2ccc3nc(Nc4cccc(Cl)c4)cc(C)c3c2)c1 | inactive: 2.53%
34 | CCOc1ccccc1CNC(=O)CN1C(=O)CCc2cc(S(=O)(=O)N3CCCCC3)ccc21 | inactive: -27.2%
35 | COc1ccc(CN2C(=O)C(NC(=O)c3ccccc3OC)(C(F)(F)F)N=C2c2ccccc2)cc1 (stereo unspecified) | inactive: -13.1%
36 | CCc1ccc(S(=O)(=O)c2nnn(-c3cccc(C)c3)c2N)cc1 | inactive: -5.71%
37 | CCc1ccc(NC(=O)CCn2cnc3ccccc3c2=O)cc1 | inactive: -8.35%
38 | CCOc1ccc(CNC(=O)CCCn2c(=O)c3cccn3c3ccc(F)cc32)cc1 | inactive: -5.96%
39 | CC(=O)N1CCc2c(sc3c2c(=O)n(Cc2ccccc2)c(=O)n3CC(=O)Nc2ccc(C)c(F)c2)C1 | inactive: -15.5%
40 | Cn1c(=O)c(=O)n(C)c2cc(NC(=O)c3ccccc3Br)ccc21 | inactive: -17.6%
41 | O=C(Nc1ccccc1C(F)(F)F)N1CCN(c2ccc3nnc(-c4ccc(F)cc4)n3n2)CC1 | inactive: 1.3%
42 | O=C(CCn1cnc2onc(-c3ccc(F)cc3)c2c1=O)N1CCN(c2cccc(Cl)c2)CC1 | inactive: -10.9%
43 | Cc1ccc(NC(=O)Cn2c(-c3nonc3N)nc3ccccc32)cc1Cl | inactive: -7.2%
44 | CCC(C(=O)NCCCN(CC)CC)n1ncn2c(cc3occc32)c1=O (stereo unspecified) | inactive: -10.2%
45 | CCOc1ccc(CNC(=O)C2Cc3cc(S(=O)(=O)N4CCCCCC4)ccc3N2C(C)=O)cc1 (stereo unspecified) | inactive: -3.31%
46 | O=C(Nc1nnc(S(=O)(=O)N2CCOCC2)s1)c1ccc(F)cc1 | inactive: -24.1%
47 | N#Cc1cccc(NC(=O)c2ccc3c(c2)N(Cc2cccc(Cl)c2)C(=O)c2ccccc2S3(=O)=O)c1 | inactive: -8.76%
48 | O=C(c1ccc(F)cc1F)N1CCC(c2noc(-c3ccc(S(=O)(=O)N4CCCC4)cc3)n2)CC1 | inactive: -2.86%

Row | Structure (SMILES) | activation
49 | CCOc1ccc(OCC)c(NC(=O)C2CCN(c3cnccn3)CC2)c1 | inactive: -9.12%
50 | Cn1c(=O)oc2cc(S(=O)(=O)Nc3ccc(O)cc3)ccc21 | inactive: -13.8%
51 | COc1ccc(C2NC(=O)N(C)C3=C2C(=O)N(c2ccc(C)cc2)C3)cc1 (stereo unspecified) | inactive: -20.1%
52 | Cc1ccccc1-c1noc(-c2ccccc2OCC(=O)Nc2ccccc2[N+](=O)[O-])n1 | inactive: -15.8%
53 | CCc1ccc(NC(=O)CN(Cc2ccccc2)S(=O)(=O)c2ccc3nc(C)sc3c2)cc1 | inactive: -7.02%
54 | COc1ccc(NC(=O)CSc2nc(-c3ccccc3)nc3c2Cc2c(CO)cnc(C)c2O3)cc1Cl | inactive: -7.3%
55 | Cc1ccc(N2CCN(C(=O)c3noc4c3COc3ccc(C)cc3-4)CC2)c(C)c1 | inactive: 4.75%
56 | Cc1ccc(CN(C(=O)COc2ccc(Br)cc2)c2ccccn2)o1 | inactive: -5.06%
57 | COc1ccc(Cl)cc1N(C)C(=O)C(=O)Nc1ccc2nc3n(c(=O)c2c1)CCCCC3 | inactive: -27.8%
58 | Cc1ccc(C)c(N2CCN(C(=O)C(C)n3c(C)c4cnn(-c5ccccc5)c(=O)c4c3C)CC2)c1 (stereo unspecified) | inactive: -18%
59 | COc1ccccc1C1C=C(c2ccc(Cl)cc2)Nc2nc(-c3ccc(Cl)cc3)nn21 (stereo unspecified) | inactive: -10%
60 | Cc1ccc2oc(=O)n(CCNC(=O)Nc3ccc(C)c(F)c3)c2c1 | inactive: -4.84%
61 | Cc1ccccc1CSc1nc2cccnc2n1Cc1ccc(C(=O)NCCc2cccs2)cc1 | inactive: -7.48%
62 | O=C(CSCc1cnn(-c2ccccc2)c1-n1cccc1)Nc1ccc(F)cc1F | inactive: -12.9%
63 | Cc1ccc(C)c(Cn2nc(C)n3c(cc4cc(C)ccc43)c2=O)c1 | inactive: -4.52%
64 | COC(=O)c1ccc(OCC2c3cc(OC)c(OC)cc3CCN2C(=O)c2ccccc2F)cc1 (stereo unspecified) | inactive: -20.7%
65 | CC(Nc1ccc(-c2nc(-c3ccccn3)no2)cc1[N+](=O)[O-])c1ccccc1 (stereo unspecified) | inactive: -10.3%
66 | Cc1ccc(CNC(=O)c2c(-c3cccc(Br)c3)noc2C)o1 | inactive: -6.83%
67 | CCCCCn1c(=N)n(CC(O)COc2cccc(C)c2)c2ccccc21 (stereo unspecified) | inactive: -15.8%
68 | CC(C)c1nn2c(=O)cc(COC(=O)CNC(=O)c3ccccc3)nc2s1 | inactive: -1.97%
69 | COc1ccc(NC(=O)Cc2csc(COc3cccc(C)c3)n2)c(OC)c1 | inactive: -2.36%
70 | OCCc1ccccc1 | inactive: -16.2%
71 | CCc1ccc(NC(=O)C(=O)NCC(c2cccnc2)N2CCOCC2)cc1 (stereo unspecified) | inactive: -22.6%
72 | Cc1cccc(C(=O)Nc2cccc(OCc3cc(=O)n4c(C)csc4n3)c2)c1 | inactive: -13.3%

Row | Structure (SMILES) | activation
73 | O=C(c1ccc(F)cc1)C1CCN(CCn2c(=S)[nH]c3ccccc3c2=O)CC1 | inactive: -13.1%
74 | CCc1ccc(NC(=O)c2cc3c(=O)n(Cc4cccnc4)ccc3nc2C)cc1 | inactive: -9.37%
75 | O=C(O)c1ccccc1Nc1cccc(C(F)(F)F)c1 | inactive: -7.48%
76 | CCn1cc(C(=O)N(C)Cc2ccccc2)c(=O)c2cc(S(=O)(=O)N3CCCCCC3)ccc21 | inactive: -1.88%
77 | COc1ccc(OCC(=O)NCCS(=O)(=O)N2CCN(c3cccc(Cl)c3)CC2)cc1 | inactive: -7.1%
78 | COc1ccc(-c2noc(CCC(=O)NCc3ccc(OC)cc3OC)n2)cc1 | inactive: -34.9%
79 | CCC(=O)N1CCc2cc(S(=O)(=O)CCC(=O)NCc3ccccc3Cl)ccc21 | inactive: -8.54%
80 | CCCc1nn2c(=O)cc(COC(=O)c3ccccc3NC(=O)C3CCCCC3)nc2s1 | inactive: -7.46%
81 | CCC(=O)O[C@]1(C(=O)SCF)[C@H](C)C[C@H]2[C@@H]3C[C@H](F)C4=CC(=O)C=C[C@]4(C)[C@@]3(F)[C@@H](O)C[C@@]21C | inactive: -16.9%
82 | COC(=O)c1c(C)sc(-c2c(-c3ccc(F)cc3)[nH]c3[nH]c(=O)[nH]c(=O)c23)c1O | inactive: -2.02%
83 | Cc1ccc(NC(=O)C2CCN(S(=O)(=O)c3cccs3)CC2)cc1 | inactive: -11.4%
84 | COc1ccc(C(=O)NCC(c2cccnc2)N2CCN(c3ccccc3F)CC2)cc1OC (stereo unspecified) | inactive: -14.2%
85 | CC1=C(C(=O)OC2CCCCCC2)C(c2ccccc2Cl)CC(=O)N1 (stereo unspecified) | inactive: -15.3%
86 | COCCCNC(=O)N1CCN(c2nnc(C)c3c(C)n(-c4ccc(Cl)cc4)nc23)CC1 | inactive: -14.8%
87 | CCc1ccc(NC(=O)CN(c2ccc(C)cc2)S(=O)(=O)c2c(C)nn(C)c2C)cc1 | inactive: -9.75%
88 | Cc1ccc(-n2c(SCc3nc(-c4ccc(Cl)cc4)no3)nnc2-c2ccncc2)cc1 | inactive: -4.57%
89 | COc1ccc(CCNC(=O)CCc2c(C)nc3c(-c4ccc(F)cc4)c(C)nn3c2C)cc1OC | inactive: -13.5%
90 | COc1cccc(CNCCCSc2nnnn2C)c1 | inactive: -13.9%
91 | COc1ccc(-c2c(C)nn3c(C(F)(F)F)cc(C)nc23)cc1OC | inactive: -12%
92 | Cc1oc2ncn(C)c(=O)c2c1C(=O)N1CCN(c2ccc(Cl)cc2)CC1 | inactive: -1.15%
93 | Cc1ccccc1CN1C(=O)c2ccccc2S(=O)c2ccc(C(=O)NCc3ccccc3)cc21 (stereo unspecified) | inactive: -8.82%
94 | CCOc1cccc(CC(=O)N2CCc3c([nH]c4ccccc34)C2c2ccc(OC)cc2)c1OCC (stereo unspecified) | inactive: -14.1%
95 | COc1ccc(Cn2c(C(=O)O)c(CNCCc3cccs3)c3ccc(OC)cc32)cc1 | inactive: -7.27%
96 | O=C1c2oc3ccccc3c(=O)c2C(c2cccc(O)c2)N1Cc1ccc(F)cc1 (stereo unspecified) | inactive: -16.5%
